Measured values taken from the supplement of paper PMC10928670.

Columns and labels:
Assay in all cases: Agar dilution by CLSI M07.
cefixime = compound: C=CC1=C(C(=O)O)N2C(=O)[C@@H](NC(=O)/C(=N\OCC(=O)O)c3csc(N)n3)[C@H]2SC1 [cefixime]
azithromycin = compound: CC[C@H]1OC(=O)[C@H](C)[C@@H](O[C@H]2C[C@@](C)(OC)[C@@H](O)[C@H](C)O2)[C@H](C)[C@@H](O[C@@H]2O[C@H](C)C[C@H](N(C)C)[C@H]2O)[C@](C)(O)C[C@@H](C)CN(C)[C@H](C)[C@@H](O)[C@]1(C)O [azithromycin]
ceftriaxone = compound: CO/N=C(\C(=O)N[C@@H]1C(=O)N2C(C(=O)O)=C(CSc3nc(=O)c(O)nn3C)CS[C@H]12)c1csc(N)n1 [ceftriaxone]
penicillin G = compound: CC1(C)S[C@@H]2[C@H](NC(=O)Cc3ccccc3)C(=O)N2[C@H]1C(=O)O [penicillin G]
spectinomycin = compound: CN[C@@H]1[C@H](O)[C@H](NC)[C@H]2O[C@@]3(O)C(=O)C[C@@H](C)O[C@H]3O[C@@H]2[C@H]1O [spectinomycin]

| Test System | MIC (cefixime) | MIC (azithromycin) | MIC (ceftriaxone) | MIC (penicillin G) | MIC (spectinomycin) |
| --- | --- | --- | --- | --- | --- |
| Neisseria gonorrhoeae isolate 83 (GyrA: Wild type, ParC: Wild type, mtrR: -35A Del, G45D, penA: Type IV NonMosaic, A517G, G543S, ponA: L421P, porB: G120K, A121D) | 0.06 µg/mL | 0.25 µg/mL | 0.06 µg/mL | 4 µg/mL | 16 µg/mL |
| Neisseria gonorrhoeae isolate 84 (GyrA: Wild type, ParC: Wild type, mtrR: Wild type, penA: Type XXII NonMosaic, A517G, ponA: L421P, porB: porB1a) | ≤ 0.015 µg/mL | 0.06 µg/mL | ≤ 0.015 µg/mL | 0.25 µg/mL | 8 µg/mL |
| Neisseria gonorrhoeae isolate 85 (GyrA: Wild type, ParC: Wild type, mtrR: -35A Del, A39T, penA: Type IV NonMosaic, A517G, G543S, ponA: L421P, porB: G120D) | 0.03 µg/mL | 0.25 µg/mL | 0.03 µg/mL | 2 µg/mL | 32 µg/mL |
| Neisseria gonorrhoeae isolate 86 (GyrA: Wild type, ParC: Wild type, mtrR: -35A Del, G45D, penA: Type XXII NonMosaic, A517G, ponA: Wild type, porB: G120D) | 0.03 µg/mL | 0.5 µg/mL | 0.03 µg/mL | 1 µg/mL | 16 µg/mL |
| Neisseria gonorrhoeae isolate 87 (GyrA: Wild type, ParC: Wild type, mtrR: -35A Del, G45D, penA: Type I NonMosaic, ponA: L421P, porB: porB1a) | ≤ 0.015 µg/mL | ≤ 0.03 µg/mL | ≤ 0.015 µg/mL | 0.06 µg/mL | 32 µg/mL |
| Neisseria gonorrhoeae isolate 88 (GyrA: Wild type, ParC: Wild type, mtrR: -35A Del, penA: Type XXII NonMosaic, A517G, ponA: L421P, porB: G120K, A121D) | ≤ 0.015 µg/mL | ≤ 0.03 µg/mL | ≤ 0.015 µg/mL | 0.125 µg/mL | 16 µg/mL |
| Neisseria gonorrhoeae isolate 89 (GyrA: Wild type, ParC: Wild type, mtrR: Wild type, penA: Type XXII NonMosaic, A517G, ponA: L421P, porB: Wild type) | ≤ 0.015 µg/mL | 0.06 µg/mL | ≤ 0.015 µg/mL | > 64 µg/mL | 16 µg/mL |
| Neisseria gonorrhoeae isolate 90 (GyrA: Wild type, ParC: Wild type, mtrR: -35A Del, G45D, penA: Type I NonMosaic, ponA: L421P, porB: G120D, A121G) | ≤ 0.015 µg/mL | ≤ 0.03 µg/mL | ≤ 0.015 µg/mL | 0.06 µg/mL | 16 µg/mL |
| Neisseria gonorrhoeae isolate 91 (GyrA: Wild type, ParC: Wild type, mtrR: -35A Del, A39T, penA: Type IV NonMosaic, A517G, G543S, ponA: Wild type, porB: Wild type) | 0.03 µg/mL | 0.25 µg/mL | 0.03 µg/mL | 0.5 µg/mL | 32 µg/mL |
| Neisseria gonorrhoeae isolate 92 (GyrA: Wild type, ParC: Wild type, mtrR: Wild type, penA: Type I NonMosaic, ponA: Wild type, porB: Wild type) | ≤ 0.015 µg/mL | ≤ 0.03 µg/mL | ≤ 0.015 µg/mL | 0.06 µg/mL | 32 µg/mL |
| Neisseria gonorrhoeae isolate 93 (GyrA: Wild type, ParC: Wild type, mtrR: -35A Del, G45D, penA: Type IX NonMosaic, A517G, ponA: L421P, porB: G120K, A121D) | 0.03 µg/mL | 0.25 µg/mL | 0.03 µg/mL | 2 µg/mL | 32 µg/mL |
| Neisseria gonorrhoeae isolate 94 (GyrA: Wild type, ParC: Wild type, mtrR: -35A Del, penA: Type IX NonMosaic, A517G, ponA: L421P, porB: Wild type) | ≤ 0.015 µg/mL | 1 µg/mL | ≤ 0.015 µg/mL | 2 µg/mL | 16 µg/mL |
| Neisseria gonorrhoeae isolate 95 (GyrA: Wild type, ParC: Wild type, mtrR: -35A Del, penA: Type XXII NonMosaic, A517G, ponA: L421P, porB: G120D, A121D) | ≤ 0.015 µg/mL | 0.5 µg/mL | ≤ 0.015 µg/mL | 1 µg/mL | 16 µg/mL |
| Neisseria gonorrhoeae isolate 96 (GyrA: S91F, ParC: Wild type, mtrR: A39T, penA: Type XIX NonMosaic, A517G, ponA: L421P, porB: porB1a) | ≤ 0.015 µg/mL | 0.06 µg/mL | ≤ 0.015 µg/mL | 16 µg/mL | 32 µg/mL |
| Neisseria gonorrhoeae isolate 97 (GyrA: Wild type, ParC: Wild type, mtrR: Wild type, penA: Type I NonMosaic, ponA: Wild type, porB: Wild type) | ≤ 0.015 µg/mL | 0.25 µg/mL | ≤ 0.015 µg/mL | 0.125 µg/mL | 16 µg/mL |
| Neisseria gonorrhoeae isolate 98 (GyrA: Wild type, ParC: Wild type, mtrR: -35A Del, penA: Type XXII NonMosaic, A517G, ponA: Wild type, porB: G120D, A121D) | ≤ 0.015 µg/mL | 0.5 µg/mL | ≤ 0.015 µg/mL | 1 µg/mL | 16 µg/mL |
| Neisseria gonorrhoeae isolate 99 (GyrA: S91F, ParC: Wild type, mtrR: -35A Del, penA: Type II NonMosaic, A517G, ponA: L421P, porB: G120K, A121D) | 0.03 µg/mL | 0.25 µg/mL | 0.03 µg/mL | 64 µg/mL | 16 µg/mL |
| Neisseria gonorrhoeae isolate 100 (GyrA: Wild type, ParC: Wild type, mtrR: Wild type, penA: Type II NonMosaic, A517G, ponA: L421P, porB: G120N, A121D) | ≤ 0.015 µg/mL | 0.25 µg/mL | ≤ 0.015 µg/mL | 0.25 µg/mL | 16 µg/mL |
| Neisseria gonorrhoeae isolate 101 (GyrA: S91F, ParC: Wild type, mtrR: G45D, penA: Type IX NonMosaic, A517G, ponA: L421P, porB: G120K, A121D) | 0.03 µg/mL | 0.06 µg/mL | 0.03 µg/mL | 2 µg/mL | 16 µg/mL |
| Neisseria gonorrhoeae isolate 102 (GyrA: Wild type, ParC: Wild type, mtrR: -35A Del, A39T, penA: Type IV NonMosaic, A517G, G543S, ponA: L421P, porB: G120K, A121D) | ≤ 0.015 µg/mL | ≤ 0.03 µg/mL | ≤ 0.015 µg/mL | 0.25 µg/mL | 8 µg/mL |
| Neisseria gonorrhoeae isolate 103 (GyrA: D95G, ParC: Wild type, mtrR: -35A Del, penA: Type XII NonMosaic, A517G, ponA: L421P, porB: G120K, A121N) | 0.06 µg/mL | 1 µg/mL | 0.06 µg/mL | 2 µg/mL | 32 µg/mL |
| Neisseria gonorrhoeae isolate 104 (GyrA: D95N, ParC: Wild type, mtrR: -35A Del, penA: Type XII NonMosaic, A517G, ponA: L421P, porB: G120K, A121N) | 0.03 µg/mL | 0.5 µg/mL | 0.03 µg/mL | 16 µg/mL | 32 µg/mL |
| Neisseria gonorrhoeae isolate 105 (GyrA: S91F, D95G, ParC: Wild type, mtrR: -35A Del, penA: Type V NonMosaic, A517G, G543S, ponA: L421P, porB: G120K, A121D) | ≤ 0.015 µg/mL | ≤ 0.03 µg/mL | ≤ 0.015 µg/mL | 0.25 µg/mL | 16 µg/mL |
| Neisseria gonorrhoeae isolate 106 (GyrA: S91F, D95N, ParC: S88P, mtrR: -35A Del, G45D, penA: Type X Mosaic, N513Y, ponA: L421P, porB: G120K, A121D) | 0.5 µg/mL | 0.125 µg/mL | 0.125 µg/mL | 2 µg/mL | 32 µg/mL |
| Neisseria gonorrhoeae isolate 107 (GyrA: Wild type, ParC: Wild type, mtrR: Wild type, penA: Type XXII NonMosaic, A517G, ponA: L421P, porB: Wild type) | ≤ 0.015 µg/mL | 0.125 µg/mL | ≤ 0.015 µg/mL | 0.25 µg/mL | 16 µg/mL |

MIC of N. gonorrhoeae strains collected 1971-2005, agar dilution (CLSI M07); ranges 0.03-64 mg/L (penicillin, azithromycin), 0.015-1 (cefixime, ceftriaxone), 0.5-256 (spectinomycin); higher = less susceptible. No active / inactive call per row; the paper counts cefixime and ceftriaxone above 0.25 and azithromycin above 1 mg/L as non-susceptible. The source says 'penicillin'; penicillin G is assumed. Isolates are numbered anew.
